In PubChem BioAssay AID651820 (National Center for Advancing Translational Sciences (NCATS), 2012):
The whole screen tested about 340,000 compounds, of which about 12,000 (3.5%) were called active. The shares of active, inactive and inconclusive entries below differ from those in the screen. Calls come from the whole dose curve; as a rule, active = well fitted inhibition curve with a large enough effect; inconclusive = small, poorly fitted or top-dose-only effect, or another doubt; inactive = no such curve, though single readings can be large or run the other way. Potencies of inconclusive entries are left out as doubtful fits.

Test: qHTS Assay for Inhibitors of Hepatitis C Virus (HCV)
Details: Huh7.5.1 HCVcc-Cre (HCVcc is cell-culture hepatitis C virus) infection, luciferase reporter, 44 h; activity change, negative = inhibition: at 41.8 µM (top of the series)
Procedure, shortened: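 Cells seeded at 1,000/well and cultured 4 h, then compounds added followed by HCVcc-Cre virus (~0.5 moi). After 44 h further culture, luciferase substrate was added, plates held 15 min at room temperature, and luminescence read for 15 sec.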
% is set by controls: 0 for no effect and ±100 for the full control effect; potency is the fitted concentration of half-maximal effect; tags give direction and shape of the fitted curve.

Q: With O=[N+]([O-])c1ccc(C(c2ccc([N+](=O)[O-])cc2)c2ccc([N+](=O)[O-])cc2)cc1 as the compound, how does the Potency read?
A: inconclusive [inhibitor, single point]

Q: Which Potency does the source give for Cc1nc2cc(NC(=O)Nc3ccc(Br)cc3)ccc2o1 here?
A: inconclusive [inhibitor, partial curve]

Q: With COc1ccc(CC(=O)Nc2nc(-c3ccc(OC)c(OC)c3)cs2)cc1OC as the compound, how does the Potency read?
A: active: 5.62 µM

Q: For Cn1cnc2c(=O)sc3ccccc3c21, which “activity change, negative = inhibition” value is on record?
A: inactive: -8.81%

Q: With CC1=C(C(=O)OC(C)C)C(c2ccccc2Cl)CC(=O)N1 (configuration not stated) as the compound, how does the Potency read?
A: inconclusive [inhibitor, single point]

Q: For c1ccc(OCCOc2ccccc2-c2nnco2)cc1, which “activity change, negative = inhibition” value is on record?
A: inactive: 4.52%

Q: Which Potency does the source give for CCC1=Nc2cc(C(=O)NCc3ccco3)ccc2Sc2ccc(Cl)cc21 here?
A: inconclusive [inhibitor, full curve]

Q: For COc1cc(CC(=O)Nc2ccc(Cl)c(C(F)(F)F)c2)cc(OC)c1OC, which Potency is on record?
A: inconclusive [inhibitor, partial curve]

Q: For CCCCc1ccc(/C=C(\C#N)C(N)=S)s1, which “activity change, negative = inhibition” value is on record?
A: inactive: 0.111%

Q: With COCCn1c(=N)c(S(=O)(=O)c2ccc(F)cc2)cc2c(=O)n3cccc(C)c3nc21 as the compound, how does the Potency read?
A: inconclusive [inhibitor, single point]

Q: For CCc1cc2cccc(C)c2nc1SCC(=O)c1ccc(NC(C)=O)cc1, which Potency is on record?
A: inconclusive [inhibitor, single point]

Q: Which Potency does the source give for CN(C)c1ccc(/C=C/C(=O)c2ccc(C(C)(C)C)cc2)cc1[N+](=O)[O-] here?
A: inconclusive [inhibitor, single point]

Q: With COc1ccc(C2CCCN2C(=S)Nc2ccc(C)cc2Cl)cc1OC (configuration not stated) as the compound, how does the Potency read?
A: inconclusive [inhibitor, partial curve]

Q: With CC(C)NC(=O)COC(=O)c1ccc(Cl)c(S(=O)(=O)N2CCCC2)c1 as the compound, how does the Potency read?
A: inconclusive [inhibitor, single point]

Q: Which “activity change, negative = inhibition” value does the source give for COc1cc(/C=C2/SC(N)=NC2=O)ccc1Oc1ccc([N+](=O)[O-])cc1[N+](=O)[O-] here?
A: inactive: 9.92%

Q: Which Potency does the source give for O=C(CSc1ccc(-c2ccccn2)nn1)c1ccc([N+](=O)[O-])cc1 here?
A: inconclusive [inhibitor, single point]

Q: With Cc1cccc(CC(=O)Nc2cc(C)c3c(=O)oc4ccccc4c3n2)c1 as the compound, how does the Potency read?
A: inconclusive [inhibitor, full curve]

Q: Which Potency does the source give for CC(=O)Nc1ccc(S(=O)(=O)Oc2ccc(C(=S)N3CCCCC3)cc2)cc1 here?
A: inconclusive [inhibitor, partial curve]

Q: Which Potency does the source give for COCCNc1nc2c(c(=O)n(C)c(=O)n2C)n1Cc1cccc(C(F)(F)F)c1 here?
A: inconclusive [inhibitor, single point]

Q: With CCOC(=O)c1c(C)oc2c1c(CN1CCN(CCO)CC1)c(O)c1ccccc12 as the compound, how does the Potency read?
A: inconclusive [inhibitor, single point]

Q: With COc1ccc(Cl)cc1NC(=O)CN(C)C(=O)c1ccc(N2CCCCCC2)c([N+](=O)[O-])c1 as the compound, how does the Potency read?
A: inconclusive [inhibitor, single point]

Q: Which Potency does the source give for O=c1[nH]c(CSc2ccccn2)nc2c1cnn2-c1ccccc1 here?
A: inconclusive [inhibitor, single point]

Q: With CCOc1cc(-c2c(C#N)c(N)nc3c2CCc2ccccc2-3)ccc1O as the compound, how does the Potency read?
A: inconclusive [inhibitor, single point]

Q: With O=c1[nH]c(CN2CCc3ccccc32)nc2scc(-c3cccs3)c12 as the compound, how does the Potency read?
A: inconclusive [inhibitor, single point]

Q: For O=C(N/N=C/c1ccc(-c2ccc(Br)cc2)o1)c1ccc2c(c1)OCO2, which Potency is on record?
A: inconclusive [inhibitor, partial curve, poor fit]

Q: With Cn1cnnc1SCC(=O)Nc1cc(S(=O)(=O)N2CCCCC2)ccc1Cl as the compound, how does the “activity change, negative = inhibition” value read?
A: inactive: 8.62%

Q: For CCOC(=O)c1c(CSc2ccccc2)n(C)c2cc(Br)c(OCC(O)CNC(CO)(CO)CO)cc12 (configuration not stated), which Potency is on record?
A: inconclusive [inhibitor, partial curve]

Q: Which Potency does the source give for CC(Cc1cccs1)NC(=S)Nc1ccc(Cl)cc1 (configuration not stated) here?
A: inconclusive [inhibitor, single point]

Q: With CC(=O)N1c2ccc(S(=O)(=O)N3CCC(C(=O)Nc4ccccn4)CC3)cc2CC1C (configuration not stated) as the compound, how does the Potency read?
A: inconclusive [inhibitor, single point]

Q: With C=CCn1c(SCC(=O)NCC2CCCO2)nc2scc(-c3ccccc3)c2c1=O (configuration not stated) as the compound, how does the Potency read?
A: inconclusive [inhibitor, single point]

Q: With COc1cc(/C=C(/C#N)c2nc3ccccc3[nH]2)ccc1OCc1ccc(C(=O)O)o1 as the compound, how does the “activity change, negative = inhibition” value read?
A: inactive: -1.46%

Q: For O=C(O)c1ccc2c(=O)n(-c3ccccc3)c(=S)[nH]c2c1, which Potency is on record?
A: inconclusive [inhibitor, single point]

Q: With O=C(Nc1ccc(Oc2cccnc2)cc1)C1CCN(Cc2cc(Cl)ccc2O)CC1 as the compound, how does the Potency read?
A: inconclusive [inhibitor, full curve]

Q: For N#C/C=C(/N)c1ccc(Br)cc1, which “activity change, negative = inhibition” value is on record?
A: inactive: 18.6%

Q: For COc1ccccc1-c1cccc([C@@H]2C[C@H]3[C@H](CON3C)CN2C(=O)CCc2ccccc2)c1, which Potency is on record?
A: inconclusive [inhibitor, partial curve]

Q: Which Potency does the source give for c1ccc(-c2cn(-c3ccccc3)c3ncnc(NCCCN4CCOCC4)c23)cc1 here?
A: inconclusive [inhibitor, single point]

Q: For Nc1nc(Nc2ccccc2Cl)cc(=O)[nH]1, which “activity change, negative = inhibition” value is on record?
A: inactive: 4.86%

Q: With CC(C)c1ccc(NC(=O)CSc2n[nH]c(=O)n2C2CC2)cc1 as the compound, how does the “activity change, negative = inhibition” value read?
A: inactive: -18.8%

Q: For Cc1ccc(C(=O)Nc2cccc(NC(=O)c3cccs3)c2)c(C)c1, which “activity change, negative = inhibition” value is on record?
A: inactive: -29.8%

Q: With COc1cc(NS(=O)(=O)c2ccc(C)cc2)c2ncccc2c1 as the compound, how does the Potency read?
A: inconclusive [inhibitor, full curve]

Q: With COc1ccc(-c2nn(-c3ccccc3)cc2/C=N/NC(=O)c2ccc(Br)o2)cc1 as the compound, how does the Potency read?
A: inconclusive [inhibitor, single point]

Q: With Cc1ccc2c(c1)N(CC(=O)c1cccc(Cl)c1)C(=O)C(C)O2 (configuration not stated) as the compound, how does the Potency read?
A: inconclusive [inhibitor, single point]
